± gives the standard deviation of the averaged measurements. The list shows a part of the results.
These sequences were tested on PfAP2-LT AP2 domain (GST-tagged) (assay: gcPBM binding intensity (ln(normalized median fluorescence intensity)); higher = stronger DNA binding).
In short: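 The highest Masliner-normalised natural-log median intensity across replicate spots of either probe orientation is reported as binding intensity. GST-tagged P. falciparum DNA-binding domains expressed in E. coli were applied for 1 h to an Agilent 4 × 180k array of primer-extended double-stranded 36-bp intergenic genomic probes plus negative controls, and bound protein was detected with Alexa488 anti-GST antibody and scanned at 488 nm.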

“TTTTTATACAATTAGACACACACAAAAAGTATATAT [CACACA_site8272]” and “TGCTTAATTTACGTGGGTACATACACCTCATATATT [XGTACX_site3093]” are within error of each other in “gcPBM binding intensity (ln)” value: 9.08 ± 0.41 for the first, 8.96 ± 0.46 for the second.

“TTAATACATATATATATATTATATATATATATATAT [TGCATGCA_negctrl_site177]” and “TATCGTTATATAATATGTACATATAAAATTTAAATT [XGTACX_site1887]” are within error of each other in “gcPBM binding intensity (ln)” value: 9.05 ± 0.25 for the first, 8.57 ± 0.39 for the second.

“AAAATGTATATATAAACATGCACACGTGGTTGTATA [TGCATGCA_site847]” and “TATATATTATGACCACCACACACCTATACGCATAAC [CACACA_site2447]” are within error of each other in “gcPBM binding intensity (ln)” value: 9.14 ± 0.27 for the first, 9.44 ± 0.085 for the second.

Going from “TCTTAAATTTCTTTATGTACATAATTAATATATTTA [XGTACX_site4456]” to “ATATATATATATATATGTACATATCACTTTAAATAT [XGTACX_site3859]”, the “gcPBM binding intensity (ln)” value rises from 8.74 ± 0.49 to 9.74 ± 0.042.

“TTTTCTTAAAAAATCAAACACACATATATATATACA [CACACA_site2297]” and “ATGATAGTATGTATGAGTACGAAAAAAAAAAATTAA [XGTACX_site32]” are within error of each other in “gcPBM binding intensity (ln)” value: 8.62 ± 0.37 for the first, 8.73 ± 0.54 for the second.

“AAATGCAAATGATGATGTACATACAAAAATTAAATT [XGTACX_site5323]” and “TGTGGGAATAACCACACACACACACCCATATATATA [CACACA_site5876]” are within error of each other in “gcPBM binding intensity (ln)” value: 9.13 ± 0.47 for the first, 9.78 ± 0.28 for the second.

First: ATATATATATATATTGTACACACATTTATGCATATA [CACACA_site9055]
Second: CTCAAACAATATTATATAATAAAGTACATATATATT [CACACA_negctrl_site446]
The “gcPBM binding intensity (ln)” value of the first is higher: 9.68 ± 0.2 for the first, 8.79 ± 0.35 for the second.

“TATATTTTTATATTTTGTACATATAGTAAATATAAA [XGTACX_site4768]” and “AAAAATAAATATACATGTACTTAAAATAATCGAATA [XGTACX_site8432]” are within error of each other in “gcPBM binding intensity (ln)” value: 8.24 ± 0.38 for the first, 8.82 ± 0.43 for the second.

“ACGTATCAAAAAATTTGTACATATATATATATATAT [XGTACX_site1024]” and “GAACAGAAAAAGAATAGTACATATATATATATATAT [XGTACX_site3700]” are within error of each other in “gcPBM binding intensity (ln)” value: 9.64 ± 0.13 for the first, 9.59 ± 0.21 for the second.

“TATAATATGAACAGTACACACAAAATAAATTCGTAT [CACACA_site3586]” and “ATTCAAAATAATAGAATTGTTAAAGTTGTAAATTGA [CACACA_negctrl_site727]” are within error of each other in “gcPBM binding intensity (ln)” value: 9.19 ± 0.38 for the first, 8.4 ± 0.49 for the second.

“GTTTATGTTAAACCATGTACTTAATATTTTATTCTT [XGTACX_site3761]” and “AAAAAAAAAGTATTATGTACATAAAAATAAAAAAAT [XGTACX_site4166]” are within error of each other in “gcPBM binding intensity (ln)” value: 8.79 ± 0.45 for the first, 8.97 ± 0.54 for the second.

“TATTAAAATATGTCAGTTCTTAAAAAGTTGATGAGT [GTGCAC_negctrl_site77]” and “TATGATTCATAATAGTGTACGTAAAAATTGACTAGA [XGTACX_site5376]” are within error of each other in “gcPBM binding intensity (ln)” value: 8.44 ± 0.38 for the first, 8.8 ± 0.44 for the second.

“ATTGTAGAATTTAATAGTACTCACGAATAAAATAAA [XGTACX_site6280]” and “AAAAATATATAAAGAAAAAGAATATAATATAAAATA [GTGCAC_negctrl_site208]” are within error of each other in “gcPBM binding intensity (ln)” value: 8.52 ± 0.53 for the first, 8.63 ± 0.52 for the second.

“GCATTTTAATAATTATGTACATATATTATTCCTGGT [XGTACX_site3664]” and “TTCCATCAAAAAATGGGTACACATTATAGAAATATT [XGTACX_site8482]” are within error of each other in “gcPBM binding intensity (ln)” value: 8.96 ± 0.5 for the first, 8.6 ± 0.4 for the second.

“ACGCATGTAATTTATACACACATTCTTTTATATTTT [CACACA_site3708]” and “TATACATATATATATACACACATATATATATATACA [CACACA_site402]” are within error of each other in “gcPBM binding intensity (ln)” value: 8.99 ± 0.39 for the first, 9.15 ± 0.24 for the second.

First: AAATTATTATCGTTAATATGTATATATGTGCCAAGT [TGCATGCA_negctrl_site557]
Second: AAAACATACAGATATACACACATATATATATATATA [CACACA_site5091]
The “gcPBM binding intensity (ln)” value of the first is lower: 8.72 ± 0.4 for the first, 10.1 ± 0.15 for the second.

“ATATAGATCTACACTGCACACATTTTTAACACTGCT [CACACA_site1882]” and “ATATTTAAACGATGGTGTACATATATTACAAGTTGT [XGTACX_site1743]” are within error of each other in “gcPBM binding intensity (ln)” value: 9.39 ± 0.27 for the first, 8.98 ± 0.44 for the second.

“TAAAATGAAGGAATATGTACATAAATAAACATATAT [XGTACX_site6266]” and “AATATACGAAATTGTGCACACATATATTTATGTATG [CACACA_site1510]” are within error of each other in “gcPBM binding intensity (ln)” value: 8.98 ± 0.45 for the first, 9.31 ± 0.39 for the second.

“CGATATAAAGATATTAGTACATATGCATGCTTGTCT [XGTACX_site8629]” and “CATATATGATATATTAGTACATATATATATATATAT [XGTACX_site1574]” are within error of each other in “gcPBM binding intensity (ln)” value: 8.93 ± 0.54 for the first, 9.38 ± 0.22 for the second.

Compared with “AATCTAATGTAATGCATACACACAACTATCCATCAA [CACACA_site535]”, “CATATACGCAAACACACACACATATATATATATATA [CACACA_site501]” is higher in “gcPBM binding intensity (ln)” value: 9.15 ± 0.26 for the first, 10.3 ± 0.27 for the second.

“AGGTATATATATTTATGTACTTAAAATGAGAAAATA [XGTACX_site8337]” and “TATAATAATATTTATTGTACAATTAGGTTAATTCAT [XGTACX_site1986]” are within error of each other in “gcPBM binding intensity (ln)” value: 8.55 ± 0.56 for the first, 8.61 ± 0.46 for the second.

“TTGAAATTAAATGACATACACACTATATTATATATT [CACACA_site3135]” and “AAAAATAAAGTAAAAGCATGCTAGTATATGGAAAAT [TGCATGCA_site486]” are within error of each other in “gcPBM binding intensity (ln)” value: 8.76 ± 0.38 for the first, 9.22 ± 0.4 for the second.

From the supplement of paper PMC11417369
